# In all, about 33,000 sequences were measured (“E-score (-0.5 to 0.5)”: median about -0.04, highest 2% from about 0.36 on). This is one part of the list.
# Target: T1, Hmlalpha2 (UniProt P0CY09)
# T1 sequence: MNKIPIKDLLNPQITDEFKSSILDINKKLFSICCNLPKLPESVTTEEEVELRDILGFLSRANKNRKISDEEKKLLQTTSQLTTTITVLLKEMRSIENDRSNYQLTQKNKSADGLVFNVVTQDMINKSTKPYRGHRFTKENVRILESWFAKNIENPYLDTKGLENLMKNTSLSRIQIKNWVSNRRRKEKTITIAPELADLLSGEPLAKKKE
# Test: PBM E-score (8-mer binding enrichment) (E-score (-0.5 to 0.5)); higher = stronger / more preferred TF binding; most listed sequences are background and not binding sites
# Conditions: protein concentration: 200 nM; construct: GST-full length
# Procedure, shortened: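 Full-length yeast transcription factors or their DNA-binding domains, GST-tagged and expressed with PURExpress, were applied at about 100-200 nM to universal all-10-mer Agilent arrays. These arrays had been made double-stranded by primer extension on fresh or once-stripped slides. Detection used fluorescent anti-GST, normalisation used masliner, and E-scores for ungapped eight-base words pooled with reverse complements came from the Universal PBM Analysis Suite.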
row,Sequence,PBM E-score
1,CTTGGTCA,0.00341
2,GCACGCTA,-0.192
3,AGGGCTAC,-0.23
4,ATGGGTCC,-0.185
5,AGCAGCTC,-0.264
6,CAGATCGC,-0.0789
7,AGCGGGAG,-0.247
8,GGGTCACC,-0.315
9,ATATCCCC,-0.163
10,CGGTCACG,-0.263
11,GCCGGCTA,-0.171
12,AGCAAACC,0.111
13,ACGGTCCC,-0.356
14,CTGACGAA,0.0347
15,AGAGTCGA,-0.214
16,CCCCACCA,-0.158
17,ATGGGATC,-0.107
18,GACGCTAA,-0.0516
19,GCACTGCA,-0.074
20,ATCTAGTC,-0.129
21,AAACTTAC,0.25
22,AAAACTGT,0.145
23,CGTTATGA,-0.0781
24,CGTCCTCC,-0.305
25,AGCTAAAC,0.0279

row,Sequence,PBM E-score
1,ACGCGAAA,0.15
2,CTCGATCA,-0.0171
3,AGTTGATA,0.0733
4,AGTCACTC,-0.0916
5,CTGAACAG,-0.1
6,GACTCACA,-0.0004
7,CTGGAACA,0.0869
8,GTCCCGCA,-0.264
9,GCGCTGCA,0.00088
10,CGCGCTGC,-0.0702
11,CCCGCTGC,-0.247
12,GTCTTATA,0.00859
13,ACAGGGCA,0.0594
14,AGCACTCC,0.0595
15,CACCTGTC,-0.266
16,GGTATTCA,0.133
17,CAGATAAG,-0.00314
18,CGATCCCC,-0.154
19,AGCGGCCA,-0.265
20,AAATCACA,0.165
21,ATTCAGTC,-0.0888
22,AAAATAGA,0.0729
23,CCCGTGCC,-0.337
24,GATGCTAC,0.069
25,ACGAGAGA,-0.0602

row,Sequence,PBM E-score
1,AGCTACAA,-0.0135
2,ATGATGGC,-0.222
3,AAAATCTA,0.208
4,CTATGAGA,-0.259
5,CAGGTTAA,0.203
6,AAACTCTA,0.0851
7,CAGTTATC,-0.131
8,AGTGCTGC,-0.252
9,AACCCATA,0.109
10,AGTGACTG,-0.152
11,AGCTCAAC,0.0679
12,GCTCCACC,-0.253
13,ACCCCTCG,-0.271
14,ATCGCCGG,-0.14
15,ACCGTCGG,-0.207
16,GTTTTTAA,0.279
17,ACATGATG,0.348
18,ATAGAATC,-0.1
19,AATTACGG,-0.0144
20,AATGAAAT,0.177
21,AACTCGGT,-0.0432
22,TCTCTGAA,-0.162
23,AACATTGT,0.284
24,AGTATCCC,-0.179
25,AAAAAGAA,0.115

row,Sequence,PBM E-score
1,GCTCTACC,-0.181
2,AGCCCGGC,-0.202
3,CCCACAGC,-0.0147
4,AAAGTACT,0.0164
5,CCAGACCG,-0.219
6,CATCCACC,-0.16
7,GTAAGAAA,0.0998
8,ATTAGTGA,-0.002
9,GTGAGTCA,-0.0354
10,CATAACCA,-0.00499
11,AGCCTCGC,-0.109
12,AGCATTGG,0.0606
13,AACGAGTC,0.00953
14,GTACAAAC,0.258
15,GCGTGGAA,-0.182
16,GGCATGTA,0.439
17,TATGGTAA,0.0569
18,ATAATTAG,0.078
19,AAAGCGTC,-0.0444
20,TCCCATCA,-0.215
21,ACCATGTG,0.188
22,ATCATGCC,-0.0296
23,TGGAAGAA,-0.0248
24,ACTCTACC,-0.0519
25,GGTGGTAA,0.11

row,Sequence,PBM E-score
1,AACCCAGG,-0.00398
2,AGTCGGTA,-0.0931
3,ATTGCGAA,0.0851
4,GTCAAGTA,0.201
5,AGTAAAAG,0.208
6,GTCCACTA,-0.0249
7,CACTGCGC,-0.2
8,AAAGAGTG,0.0105
9,CGAAAGTC,-0.0706
10,CGCTGTCC,0.0698
11,CAAAAGTG,0.0155
12,GAGACTCC,-0.184
13,AGGAGAGA,-0.063
14,AGGGGAGA,-0.237
15,AGTGTACA,0.301
16,TTTTAAAA,0.227
17,CTTCCAAC,-0.0326
18,CGCAGTCC,-0.00615
19,GAGGCTTA,-0.0911
20,CGGTAGGC,-0.109
21,GTGGCTTA,-0.0398
22,CGTAGCAA,0.137
23,GAGCTTTA,0.0849
24,GCGGGACC,-0.204
25,AAGCTGCT,-0.0459

row,Sequence,PBM E-score
1,TAGACGGA,-0.0604
2,ACACGTAG,0.351
3,ACCTCACT,-0.0314
4,CCTCGAGA,0.00388
5,ACACATAA,0.364
6,TCTCGGCA,-0.135
7,CCCCTTAA,-0.18
8,AACGGGAG,-0.123
9,TCACGCGA,0.118
10,GCACGCAC,-0.213
11,GTCCCGGA,-0.206
12,ACCGAATA,0.143
13,CAAGACGG,-0.201
14,CAGATGGG,-0.169
15,ACCATCGT,-0.151
16,GAGTTTTA,0.125
17,AGCACAAA,0.105
18,CACCATGC,-0.0851
19,CCCGACGA,-0.065
20,ATTGATAA,0.0794
21,CCTAGTAG,-0.0432
22,CCTGGTAA,-0.0235
23,CGGCGTTC,-0.129
24,GCGGAATA,0.0517
25,GCATGAAC,0.104

row,Sequence,PBM E-score
1,CGCGTCTC,0.0746
2,TCAGGACA,-0.0605
3,CATCGCAC,-0.117
4,GACCGTTA,-0.142
5,GCGGTAGA,-0.216
6,CGCATACA,0.227
7,TATACAGA,0.251
8,ACTCTTAT,0.0802
9,GGCGTTCA,-0.0183
10,ACCTAAAA,-0.0182
11,ACCCACTG,-0.203
12,CAGTACCC,-0.101
13,TATTACCA,0.206
14,CCAGTAGG,-0.239
15,ACGAATAG,-0.18
16,CTCCTAGC,-0.157
17,ACTCTCCG,-0.0228
18,ACACTACA,0.397
19,CGTGACGA,-0.0347
20,TCCCGCAA,-0.0413
21,GATCACGC,0.125
22,GGAGTTGA,0.00752
